# From PubChem BioAssay AID1030 (National Center for Advancing Translational Sciences (NCATS), 2008)
# Values joined by “and” are separate entries in the source; they are usually repeats but may differ in a detail not shown here. Identical values can stand only once. In all, about 220,000 compounds went through this assay and about 16,000 (7.3%) were called active. This list was built around the results that the source calls inconclusive (neither active nor inactive); the mix of calls is not that of the screen. Calls come from the whole dose curve; as a rule, active = well fitted inhibition curve with a large enough effect (not every such curve was filed as active); inconclusive = small, poorly fitted or top-dose-only effect, or another doubt; inactive = no such curve, though single readings can be large or run the other way. Potencies of inconclusive entries are left out as doubtful fits.
# Target: Aldehyde dehydrogenase 1A1 (Homo sapiens) (UniProt P00352)
# Assay: qHTS Assay for Inhibitors of Aldehyde Dehydrogenase 1 (ALDH1A1);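 for activity, negative = inhibition: plate controls were no enzyme wells and a reference inhibitor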
# Conditions: Purified ALDH1A1, NADH fluorescence, propionaldehyde substrate; series mostly up to 75.3 µM; activity, negative = inhibition: at the top concentration
# Potency is the fitted concentration of half-maximal effect; tags give direction and shape of the fitted curve.
# UniProt P00352, sequence (P00352 whole entry, looked up): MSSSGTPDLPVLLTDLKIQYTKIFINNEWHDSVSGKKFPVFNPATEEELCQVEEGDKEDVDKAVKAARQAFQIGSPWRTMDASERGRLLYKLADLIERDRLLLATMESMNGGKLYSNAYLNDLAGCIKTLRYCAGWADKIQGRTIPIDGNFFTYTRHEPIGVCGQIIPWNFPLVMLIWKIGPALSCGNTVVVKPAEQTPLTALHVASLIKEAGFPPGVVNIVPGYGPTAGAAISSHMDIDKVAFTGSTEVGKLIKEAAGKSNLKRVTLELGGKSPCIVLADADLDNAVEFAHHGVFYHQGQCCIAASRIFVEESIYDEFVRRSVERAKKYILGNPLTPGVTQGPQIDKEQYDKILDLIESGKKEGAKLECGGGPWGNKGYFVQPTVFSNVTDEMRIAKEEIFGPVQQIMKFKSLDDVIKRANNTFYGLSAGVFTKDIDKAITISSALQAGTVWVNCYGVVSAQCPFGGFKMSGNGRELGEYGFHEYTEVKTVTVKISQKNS
SMILES,Potency,"activity, negative = inhibition"
CC(C)OC(=O)CSc1ncnc2c1cnn2-c1ccccc1,"inconclusive [inhibitor, partial curve]",–
COc1ccc(CCCc2nnc(SCC(=O)Nc3ccc(OC)cc3)o2)cc1,"inconclusive [inhibitor, single point]",–
COc1ccc(OC)c2[nH]c(=O)c(CCNC(=O)C(C)C)cc12,"inconclusive [inhibitor, single point]",–
CC(=O)N1CCCc2cc(S(=O)(=O)CCC(=O)N3CCN(c4ccccc4)CC3)ccc21,"inconclusive [inhibitor, partial curve]",–
COc1ccc(C(c2c(C)[nH]n(-c3ccccc3)c2=O)c2c(C)[nH]n(-c3ccccc3)c2=O)cc1OC,active: 8.91 µM,–
COc1ccc(-n2nnnc2S(=O)(=O)CC(=O)N2CCCCC2)cc1,active: 6.31 µM,–
CCN(CC)c1ccc(C=Nc2ccccc2)c(O)c1,active: 3.55 µM,–
CC(C)c1nnc(SCc2ccc(CSc3nnc(C(C)C)n3N)cc2)n1N,–,inactive: -1.84%
Cc1ccc(S(=O)(=O)C(C)C(=O)c2ccc3c(c2)OCCO3)cc1 (stereo not drawn),"inconclusive [inhibitor, single point]",–
CC(=O)c1c(C)nc2cc(Cl)ccc2c1N,–,inactive: 1.98%
COc1ccccc1N1C(=O)S/C(=C\c2cc(C)n(C)c2C)C1=O,active: 14.1 µM,–
C[C@@H]1c2cccc(O)c2C(O)=C2C(=O)[C@@]3(O)C(O)=C(C(N)=O)C(=O)[C@@H](N(C)C)[C@@H]3[C@@H](O)[C@@H]21,–,inactive: -1.89% [at 20.9 µM]
CCC(Sc1nc2sc(C(=O)OC)c(C)c2c(=O)n1N)C(=O)NCC1CCCO1 (stereo not drawn),"inconclusive [inhibitor, single point]",–
Cc1cc(NC(=O)c2ccccc2F)on1,"inconclusive [inhibitor, single point]",–
CN(C(=O)COC(=O)c1cc(S(=O)(=O)N2CCOCC2)c(Cl)cc1Cl)C1CCS(=O)(=O)C1 (stereo not drawn),–,inactive: -0.841%
O=C(CN(c1ccc(F)cc1)S(=O)(=O)c1ccccc1)NCc1ccco1,–,inactive: 1.91%
COc1ccc2c(C)c(C(=O)NCC(C)O)oc2c1OC (stereo not drawn),"inconclusive [inhibitor, partial curve]",–
O=S(=O)(NCC(c1cccnc1)N1CCOCC1)c1ccc(Cl)cc1 (stereo not drawn),active: 28.2 µM,–
Cn1cccc1C(=O)NC(=O)CSc1cccc[n+]1[O-],"inconclusive [inhibitor, single point]",–
CC(C)c1[nH]nc2c1C(c1cccnc1)C(C#N)=C(N)O2 (stereo not drawn),active: 8.91 µM,–
C=CCn1c(COc2cccc3ccc(C)nc23)nnc1SCC(N)=O,"inconclusive [inhibitor, partial curve]",–
COc1ccc2cc(S(=O)(=O)N3CCCCC3)ccc2c1S(=O)(=O)N1CCCCC1,active: 0.178 µM,–
CCOC(=O)C(=NC1CCS(=O)(=O)C1)NNc1ccc(Br)cc1 (stereo not drawn),"inconclusive [inhibitor, single point]",–
COc1ccc2c(c1)c1nnc(SCC(=O)N3C(C)CCCC3C)nc1n2C (stereo not drawn),"inconclusive [inhibitor, partial curve]",–
CCOC(=O)c1c(CN2CCCCC2)n(C)c2cc(Br)c(O)c(CN(C)C)c12,"inconclusive [inhibitor, single point]",–

SMILES,Potency,"activity, negative = inhibition"
COc1cccc(Cn2c(=O)c(-c3ccc(Cl)cc3)nc3cnc(N4CCNCC4)nc32)c1,"inconclusive [inhibitor, partial curve]",–
CCNC(=O)CN(C1CCCCC1)S(=O)(=O)c1ccc(F)cc1,–,inactive: -2.4%
COc1c(C=O)c(O)cc2c1C(=O)c1ccccc1C2=O,active: 11.2 µM and active: 3.55 µM,–
CC(=O)c1c(N2CCN(C)CC2)[nH]c(-c2ccccc2)nc1=S,"inconclusive [inhibitor, single point]",–
CCN(CC)C(=O)Cn1cc(SCC(=O)NC)c2ccccc21,–,inactive: 1.91%
CC1=C(C(=O)OC(C)C)C(c2ccc(F)cc2)NC(=O)N1 (stereo not drawn),–,inactive: -5.55%
C=CCN=C1NN=C(c2cc(C)n(CC=C)c2C)CS1,"inconclusive [inhibitor, single point]",–
CSCCC(NC(=O)c1cccc(S(=O)(=O)N2CCOCC2)c1)C(=O)Nc1ccc(F)cc1 (stereo not drawn),–,inactive: 12.9%
Cc1ccc2cc(C#N)c(NCc3ccco3)nc2c1,"inconclusive [inhibitor, single point]",–
O=C(Nc1ccccc1)NC1(C(=O)NCc2cccs2)CCCCC1,"inconclusive [inhibitor, partial curve, poor fit]",–
NC(=O)c1ccc(NC(=O)c2cnc3ccccc3n2)cc1,–,inactive: -6.23%
CCOc1ccc(NC(=O)CN2CCN(CC(=O)Nc3cc(OC)cc(OC)c3)CC2)cc1,active: 11.2 µM,–
COc1cc(/C=C/c2[nH]c(=O)[nH]c(=O)c2[N+](=O)[O-])ccc1OCCC(C)C,–,inactive: 12%
O=C(CC1CCCCC1)N1CCCC(c2nc(-c3ccc(S(=O)(=O)N4CCCC4)cc3)no2)C1 (stereo not drawn),"inconclusive [inhibitor, single point]",–
CSc1ccc(-c2nc(O)c3cnccn23)cc1,"inconclusive [inhibitor, single point]",–
COc1cc(C(C(=O)NC(C)(C)C)N(Cc2ccc3c(c2)OCO3)C(=O)c2cnccn2)cc(OC)c1OC (stereo not drawn),–,inactive: -4.39%
COc1ccc2c(c1)C(C1=C(O)CC(C)(C)CC1=O)C1=C(CC(C)(C)CC1=O)O2 (stereo not drawn),–,inactive: -2.65%
C=C(C)CNC(=S)N/N=C/c1c(F)cccc1F,"inconclusive [inhibitor, partial curve, poor fit]",–
COc1cc(CC(NC(C)=O)C(=O)NC2CCN(c3nc(C)cc(C)c3C#N)CC2)cc(OC)c1 (stereo not drawn),"inconclusive [inhibitor, partial curve]",–
C/C(CCC(=O)OC[C@@H]1O[C@H](C#Cc2ccccc2)C=C[C@@H]1Oc1ccc(C)cc1)=N/OC[C@@H](O)COCc1ccco1,–,inactive: -0.376% [at 13.5 µM]
CCOC(=O)C(C)Sc1nnc(NC(=O)c2ccc3c(c2)OCO3)s1 (stereo not drawn),"inconclusive [inhibitor, single point]",–
Nn1cnnc1N/N=C\c1ccc(-c2ccccc2[N+](=O)[O-])o1,active: 25.1 µM,–
O=C(O)/C(=C\c1ccncc1)c1cccc2ccccc12,–,inactive: -0.309% [at 13.5 µM]
CS(=O)(=O)N1CCN(C(=O)CCC2CCCC2)CC1,"inconclusive [inhibitor, partial curve, poor fit]",–
COc1cccc(OC)c1OCCCN1CCOCC1,–,inactive: -3.95%

SMILES,Potency,"activity, negative = inhibition"
Cc1nnc(SCc2nc3sc4c(c3c(=O)[nH]2)CCCC4)[nH]c1=O,"inconclusive [inhibitor, single point]",–
Fc1cccc(Nc2ncnc3sc4c(c23)CCC4)c1,–,inactive: -4.76%
O=C(O)CSCc1cccc2ccccc12,–,inactive: 10.9% [at 13.5 µM]
Cc1snc(S(=O)(=O)/C(C#N)=N\Nc2ccccc2)c1C#N,"inconclusive [inhibitor, single point]",–
COc1ccc(Cc2nc3c4c(ncn3n2)Oc2c(ccc3ccccc23)C4c2ccc(OC)c(OC)c2)cc1 (stereo not drawn),"inconclusive [inhibitor, partial curve]",–
O=C(Oc1cccc(NC(=O)c2ccco2)c1)c1cccc(S(=O)(=O)N2CCCC2)c1,"inconclusive [inhibitor, single point]",–
Cc1ccc(S(=O)(=O)NC(CC(=O)NC2CCCC2)c2ccco2)cc1 (stereo not drawn),active: 14.1 µM,–
O=C(O)CCC(=O)N1N=C(c2cccs2)CC1c1cn(-c2ccccc2)nc1-c1ccccc1 (stereo not drawn),"inconclusive [inhibitor, single point]",–
CCOC(=O)Cn1nc(/C=C/c2ccc(C(C)C)cc2)ccc1=O,"inconclusive [inhibitor, single point]",–
CCCn1c(=O)c2[nH]c(-c3ccc(OCC(=O)Nc4ccc(C#N)cc4)cc3)nc2n(CCC)c1=O,–,inactive: -3.04%
COCCNC(=O)C1CCN(S(=O)(=O)c2ccccc2)CC1,–,inactive: -0.0095%
C=CCn1c(-c2sc(-c3ccccc3)nc2C)n[nH]c1=S,"inconclusive [inhibitor, single point]",–
COc1ccc(OC)c(/C=N/c2c(-c3ccc(O)c(OC)c3)nc3ccccn23)c1,"inconclusive [inhibitor, single point]",–
Cc1cc(C)nc(SCCc2ccncc2)n1,active: 25.1 µM,–
COc1ccc(OC)c(-n2c(-c3cnccn3)n[nH]c2=S)c1,"inconclusive [inhibitor, single point]",–
COc1ccc2c(c1)CC/C(=C\C=C\c1ccccc1OC)C2=O,–,inactive: -2.19%
Cc1onc(-c2ccccc2Cl)c1C(=O)N1CCN(C/C=C/c2ccccc2)CC1,"inconclusive [inhibitor, single point]",–
CCOc1ccc(N2C(=O)CC(N)C2=O)cc1 (stereo not drawn),active: 1.12 µM,–
CN1C(=O)C(CC(=O)Nc2ccc(F)cc2)N(CCCc2ccccc2)C1=S (stereo not drawn),"inconclusive [inhibitor, single point]",–
CCOc1ccc(C(=S)N2CCOCC2)cc1OC,"inconclusive [inhibitor, single point]",–
COC(=O)Cc1ccc(NC(=S)N2CCN(c3cc(Cl)ccc3C)CC2)cc1,–,inactive: 1.03%
CC(C)CCn1nnnc1CN1CCN(C(c2ccccc2)c2ccccc2)CC1,active: 14.1 µM,–
Cc1ccc(-n2c(C)cc(/C=N/NC(=O)c3ccc(CN4CCOCC4)cc3)c2C)cc1,"inconclusive [inhibitor, single point]",–
